Several values for one entry are separate records, joined by “and”; a condition that tells them apart may be missing. Equal values may be shown once.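 These data come from cells grown in 96-well plates and exposed to compound for 48 hours at five concentrations. GI50 marks 50% less growth. Definition used: TGI = concentration required for complete inhibition of growth.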
Tested on: NCI-H322M lung
Test: growth of human tumour cells (NCI), 48 h

## CC(=N/NC(=S)N(C)C)/C(=N\NC(=S)N(C)C)c1ccccc1
  TGI: 5.26 µM

## CO/N=C(\COc1ccc2oc(-c3ccccc3)cc(=O)c2c1)c1ccc(F)cc1
  GI50: 26.1 µM
  TGI: 58.4 µM

## CNC(=O)c1ccccc1Nc1nc(Nc2ccc3c(c2OC)CCC[C@H](N2CCN(CCO)CC2)C3)ncc1Cl
  GI50: 0.856 µM and 0.517 µM
  TGI: 9.86 µM and > 10 µM

## COC(=O)CC[C@]12C[C@]13CC[C@]1(C)C4C(C)C[C@]5(CC(C)C(=O)O5)OC4CC1(C)C3CCC2C(C)(C)O (some centres undefined)
  TGI: > 100 µM

## CN1C2=Nc3n(c4ccccc4[n+]3C)CN2c2ccccc21
  TGI: > 100 µM

## O=C(NC(C(F)(F)F)(C(F)(F)F)P(=O)(Cc1ccccc1)Cc1ccccc1)C(C(F)(F)F)C(F)(F)F
  TGI: 71.2 µM

## CN(C)CCNCCCNc1c2ccccc2nc2cccc([N+](=O)[O-])c12
  TGI: 0.128 µM

## N#Cc1c(-c2ccc([N+](=O)[O-])cc2)c(C#N)c(=O)n(NS(=O)(=O)c2ccccc2)c1O
  TGI: > 100 µM

## N#Cc1cccc(C2C3=C(COC3=O)N(CCO)c3cc4c(cc32)OCO4)c1 (centres undefined)
  GI50: 3.14 µM
  TGI: > 50 µM

## CC1=C(C(=O)OCCO[N+](=O)[O-])C(c2ccccc2[N+](=O)[O-])C(C(=O)OC(C)C)=C(C)N1 (centres undefined)
  TGI: 64.4 µM

## Cc1cc(S(=O)(=O)N=C2Nc3cccc4cccc(c34)N2)c(S)cc1Cl
  TGI: > 100 µM

## Cc1cccc2c1[nH]c(=O)c1c3ccccc3cn21
  GI50: 13.6 µM
  TGI: 45.3 µM

## CS(=O)(=O)Nc1ccc2ccccc2c1
  TGI: > 100 µM

## NC(=O)c1ccc(Cl)c([N+](=O)[O-])c1
  TGI: > 100 µM

## C[C@]12C[C@H](O)[C@H]3[C@@H](CCC4=CC(=O)CC[C@@]43C)[C@@H]1CC[C@@H]2c1csc(-c2ccccc2)n1
  TGI: > 100 µM

## CCOC(=O)[C@@H](Cc1ccc(CCl)cc1)NC(C)=O
  TGI: 88.8 µM

## COc1cc(/C=C2\CCCC3=C2N=C2SC(C)=NN2C3c2cc(OC)c(OC)c(OC)c2)cc(OC)c1OC (centres undefined)
  GI50: > 100 µM
  TGI: > 100 µM

## CC1=NN2C(=N)/C(=C/c3ccc(F)cc3)C(=O)N=C2S1
  TGI: > 100 µM

## C=C1C[C@@H]2O[C@H]3[C@H]4[C@@H](C[C@@H](C)[C@@H](OC(C)=O)[C@H]42)[C@@H](C)CO[C@@]3(C)[C@H](OC(=O)CCCCCCC)CC1=O
  TGI: 50.7 µM

## CCOC(=O)N1CCN(c2c(N)nc(C)[nH]c2=O)CC1
  TGI: > 100 µM

## CSc1nc(=O)c2nc(-c3cccs3)c(-c3cccs3)nc2n1C
  TGI: > 100 µM

## CC1(C)N=C(N)N=C(N)N1c1cccc(Cl)c1
  TGI: > 100 µM

## O=C(Nc1cccc(C(F)(F)F)c1)Oc1ccc(Cl)c2cccnc12
  GI50: 2.72 µM
  TGI: 10.4 µM

## CC(C)=CCC[C@@H](C)C1=C(Nc2ccccc2F)C(O)=C(C)C(=O)C1=O
  TGI: > 100 µM

## CCn1ncc2c(=O)n3ncn(-c4ccc(Br)cc4)c3nc21
  TGI: > 100 µM

## C=C1CCC2C3(C)COC(c4ccccc4Cl)OC3CCC2(C)C1/C=C/C1=CCOC1=O (centres undefined)
  GI50: > 100 µM
  TGI: > 100 µM

## CCCCNC(=O)Cn1c2ccc(Br)cc2c2nc3ccccc3nc21
  TGI: > 100 µM

## CCn1c2ccccc2c2cc(C(=O)c3ccc(C)c4ccccc34)ccc21
  GI50: 0.529 µM
  TGI: > 100 µM

## C=C1C(=O)O[C@H]2C[C@@H]1C(=O)CC(C)CCCC(C)=CCC[C@@]2(C)O (some centres undefined)
  TGI: > 25 µM

## CO[P@@]1(=O)O[C@@H](c2ccccc2)[C@H](O)[C@]1(O)c1ccccc1
  TGI: 98.5 µM

## C=C1C(OC(C)=O)CC(OC(C)=O)C2(C)C(OC(C)=O)C(OC(C)=O)C3=C(C)C(OC(=O)/C=C/c4ccccc4)CC(C(OC(C)=O)C12)C3(C)C (centres undefined)
  TGI: > 100 µM

## C1=CCCC=CCC1.C[PH+](C)C.C[PH+](C)C.C[PH+](C)C.[Cl-].[Ir]
  GI50: > 100 µM
  TGI: > 100 µM

## Nc1c(N2CCOCC2)c(=O)nc2[nH]/c(=C\c3ccccc3O)c(=O)n12
  TGI: > 100 µM

## CC1(C)OCC(C2OC(C)(C)OC2[C@H]2O[C@@]3(O)[C@H]4[C@H](C=CC[C@@H]42)[C@@H](OCc2ccccc2)[C@H](OCc2ccccc2)[C@H]3OCc2ccccc2)O1 (some centres undefined)
  TGI: > 100 µM

## COc1ccc2[nH]c(C(=O)OCc3ccc4c(Cl)cc(Cl)c(O)c4n3)cc2c1
  GI50: 1.78 µM
  TGI: 3.88 µM

## CC[PH+](CC)CC.[Cl][Au]
  GI50: 15.4 µM
  TGI: 28.8 µM

## CC(=O)[O-].N.N.N.N.[Co+3].[O-][Cl+3]([O-])([O-])[O-].[OH3+]
  GI50: > 100 µM
  TGI: > 100 µM

## COC(=O)C1CCc2nnc(-c3ccccc3)n21 (centres undefined)
  TGI: > 100 µM

## O=C1N=C(Nc2nc(-c3csc(NC4=NC(=O)/C(=C\c5ccccc5)S4)n3)cs2)S/C1=C/c1ccccc1
  GI50: 6.97 µM
  TGI: 24.6 µM

## CS(=O)(=O)N(c1cc(-c2ccc3ncnc(Nc4ccc(F)c(Cl)c4)c3c2)cnc1Cl)S(C)(=O)=O
  GI50: 0.961 µM
  TGI: 4.6 µM

## Cc1ccc(C)c(COCCOCn2cc(N3CCOCC3)c(=O)[nH]c2=O)c1
  TGI: > 100 µM

## O=C1Nc2cc(F)ccc2C1=O
  TGI: > 100 µM

## O=c1c2ccc(Cl)cc2oc2c(CNc3ccc(S(=O)(=O)Nc4ncccn4)cc3)cccc12
  TGI: > 100 µM

## NC(=O)NN=C1Cc2ccccc2C1
  TGI: > 100 µM

## COc1cc(CNc2oc(-c3ccccc3)c(-c3ccccc3)c2C#N)cc(CN2CCN(C)CC2)c1O
  GI50: 1.75 µM
  TGI: 3.15 µM

## CCN(CC)CCCCNc1c2ccc(Cl)cc2nc2ccc(OC)cc12
  GI50: 0.575 µM
  TGI: 3.24 µM

## Clc1ccc(/C(=C/c2ccccc2)Cn2ccnc2)cc1
  TGI: > 100 µM

## COc1cc(/C=N/N=C(\N)NO)c([N+](=O)[O-])cc1OC
  TGI: > 100 µM

## CCCCn1c(=O)c(/C=C/C(=O)/C=C/c2cc3ccccc3n(CCCC)c2=O)cc2ccccc21
  GI50: 1.64 µM
  TGI: 3.32 µM

## O=C(C(=C(I)I)c1ccccc1)c1ccccc1
  TGI: 51.1 µM

## CC(=O)NN1C(=O)C(Cc2ccccc2)c2ccccc21 (centres undefined)
  TGI: > 100 µM

## COC(C)C(O)(C(=O)OCC1=CCN2CCC(O)C12)C(C)(C)O (centres undefined)
  TGI: > 100 µM

## O=C(c1ccc([N+](=O)[O-])cc1)N1CCCC1
  TGI: > 100 µM

## NCCCCNCCCN1CCOC1=O
  TGI: > 100 µM

## CCOC(=O)c1csc(NC(=O)CCN2CCCC2)n1
  TGI: > 100 µM

## NC(=O)C1CCN(Cc2c(Cl)c(Cl)c(CN3CCC(C(N)=O)CC3)c(Cl)c2Cl)CC1
  TGI: > 100 µM

## Cn1c(=O)cc(NNc2ccc(Cl)c(Cl)c2)[nH]c1=O
  TGI: 69 µM

## CC(=O)Oc1ccn2nc(C)c(Br)c2c1
  TGI: > 100 µM

## COc1cc2cnc3c4cc(OCc5ccccc5)ccc4ccc3c2cc1OC
  TGI: > 100 µM

## CCOC(=O)/C=C/CCC(C)(C)COC(C)=O
  TGI: > 10 µM

## COc1ccc(-c2cc(=O)c3c(O)c(OC)c(OC)c(OC)c3o2)cc1
  TGI: > 100 µM

## O=c1[nH]c(=O)n(C2CC(O)C(CO)O2)cc1C(F)(F)F (centres undefined)
  GI50: > 100 µM
  TGI: > 100 µM

## C/C=C(\C)C(=O)OC1/C=C(\C)CC/C=C(\C)CC2OC(=O)C(C)(OC(C)=O)C12 (centres undefined)
  TGI: > 100 µM

## CC1(C)CCC[C@]2(C)c3ccccc3C(=O)CC12 (some centres undefined)
  GI50: 54 µM
  TGI: > 100 µM

## O=P(O)(O)OCC1OC(n2cnc3c(NCc4ccccc4)ncnc32)C(O)C1O (centres undefined)
  GI50: 2.18 µM
  TGI: > 100 µM

## COc1cc(N=Nc2ccc(OC)c(S(=O)(=O)O)c2)c(C)cc1N=Nc1ccc(/C=C/c2ccc(N=[N+]([O-])c3ccc(/C=C/c4ccc(N=Nc5cc(C)c(N=Nc6ccc(OC)c(S(=O)(=O)O)c6)cc5OC)cc4S(=O)(=O)O)c(S(=O)(=O)O)c3)cc2S(=O)(=O)O)c(S(=O)(=O)O)c1
  TGI: > 100 µM

## CN(C)/N=N/c1nc2c(c(=O)n(C)c(=O)n2C)n1CC1CO1 (centres undefined)
  TGI: 57.3 µM

## O=c1/c(=N\Nc2ccccc2)c2cccc3ccc4cccc1c4c32
  TGI: > 100 µM

## OC(CC(O)(C(F)(F)Cl)C(F)(F)Cl)c1ccccc1 (centres undefined)
  TGI: > 10 µM

## C=CN(C=C)C(=O)Cn1cc(-c2ccccc2)nn1
  TGI: > 100 µM

## CCOC(=O)CN1C(=O)c2cc([N+](=O)[O-])cc3cc([N+](=O)[O-])cc(c23)C1=O
  TGI: > 100 µM

## CCOC(=O)c1c(SCc2cc(=O)[nH]c(=O)[nH]2)n(-c2ccccc2)c(=S)n(-c2ccccc2)c1=O
  TGI: > 100 µM

## CC(C)(C)/C(O)=C\c1nc2cc(F)c(F)cc2[nH]c1=O
  TGI: > 100 µM

## CCN(Cc1c(F)cccc1Cl)c1ccc(CO)c(Cl)c1
  GI50: 2.28 µM
  TGI: 12.5 µM

## O=C[C@@H](CO)O[C@H](C=O)n1cnc2c(=O)[nH]cnc21
  TGI: 1550 µM

## Cc1cc(O)c(-c2ccc([C@@H](C)CN(C)C)cc2)c2c1[nH]c(=O)c1sccc12
  GI50: 1.18 µM
  TGI: 7.11 µM

## COc1cc(NCCCCCN=C(N)NC(N)=NC(C)C)c2ncccc2c1
  GI50: 2.59 µM
  TGI: 15.6 µM

## C[C@H]1C=C2C(=O)O[C@H]3CC[C@@H](C1)[C@@]23O
  TGI: 16.6 µM

## CN1CCN(CCCOc2cc(O)c3c(=O)cc(-c4ccccc4)oc3c2)CC1
  GI50: 27.3 µM
  TGI: 96.4 µM

## O=C1CC[C@@]23CC(=O)O[C@@H]2CCCC3C1 (some centres undefined)
  TGI: > 100 µM

## COc1ccc2c(c1)CN1CCc3c(cc(OC)c(OC)c3OC)C1C2 (centres undefined)
  TGI: > 100 µM

## Oc1ccccc1/C=N/N1C(=S)N(C23CC4CC(CC(C4)C2)C3)C(=Nc2ccccc2)C1=Nc1ccccc1
  TGI: > 100 µM

## O=C1c2cc3c(cc2-c2c1c1ccc(Cl)cc1c(=O)n2CCCn1ccnc1)OCO3
  GI50: 0.0554 µM
  TGI: > 100 µM

## CC1=NOC(=O)/C1=C/c1ccc2c(c1)OCO2
  TGI: > 100 µM

## c1ccc(OC2=NC3=S(S2)SC(Oc2ccccc2)=N3)cc1
  TGI: 37 µM

## NC(=O)c1ccc[n+](C2=C([O-])c3ccccc3C(=O)/C2=N\S(=O)(=O)c2ccccc2)c1
  TGI: 29.5 µM

## c1cncc(CSc2nc3ccccc3nc2-c2cccs2)c1
  TGI: > 100 µM

## N#CC1=C(N)NC(=O)NC12Nc1ccccc1N2
  GI50: > 100 µM
  TGI: > 100 µM

## CC/C(=C/c1ccc(OC)cc1OC)[N+](=O)[O-]
  GI50: 13.4 µM
  TGI: 27.5 µM

## C[As+](C)(c1ccc(Br)c([N+](=O)[O-])c1)c1ccc(Br)c([N+](=O)[O-])c1.O=[N+]([O-])O
  TGI: > 100 µM

## COc1c(N2CCN(CN3C(=O)C(=Nc4ccc(S(=O)(=O)Nc5ncccn5)cc4)c4cc(Cl)ccc43)C(C)C2)c(F)cc2c(=O)c(C(=O)O)cn(C3CC3)c12 (centres undefined)
  GI50: 13.9 µM
  TGI: > 50 µM

## O=c1c2c3c(sc2nc2n1N=C(c1ccc(Br)cc1)CS2)CCCC3
  TGI: > 100 µM

## Cc1cn(S(=O)(=O)c2ccccc2)c2c(OCc3ccccc3)cc(NC(=O)c3cc4cc([N+](=O)[O-])ccc4s3)cc12
  TGI: > 100 µM

## COc1ccc(-c2cc3cc(Cl)cc(Cl)c3oc2=O)cc1OC
  TGI: > 100 µM

## CCCCN(CCCC)CC(C(C)=O)C(c1ccccc1)c1c(O)c2ccccc2oc1=O (centres undefined)
  TGI: > 100 µM

## NC(Cc1ccccc1)c1nccs1 (centres undefined)
  TGI: > 100 µM

From PubChem BioAssay (NCI)
